To fix the notation:
B1: CPEB3 Ribozyme (parent)
chain: UAACAGGGGGCCACAGCAGAAGCGUUCACGUCGCAGCCCCUGUCAGAUUCUGGUGAAUCUGCGAAUUCUGCUGUAUAUCUC

The source gives no read counts; variants with many changes may rest on few reads.

In this data set the parent is B1. Put plainly: self-cleavage, relative activity (ratio to wild type); higher = more cleavage; in vitro, sequencing. The method, boiled down: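 CPEB3 self-cleaving ribozyme mutant libraries were made by rounds of error-prone PCR, barcoded, and transcribed in vitro with T7 RNA polymerase for 5 hours at 37°C. Cleavage occurred during transcription and a 15 min DNase I step before EDTA stop. RNAs were reverse transcribed with template switching and Illumina-sequenced, with DNA sequencing mapping barcodes to variants. Relative activity is the variant's cleaved/total read fraction divided by wild type's (minimum 5 reads), averaged across three batches.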
Turning to A47G G52U U72A, the self-cleavage was determined as 0.99.

On to A47G U51C G52U, for which the self-cleavage came out at 1.18.

As for A47G G63A A64G A65U U72A, the self-cleavage was 0.32.

In the case of U48C U60A A65U U67C, the self-cleavage was found to be 0.11.

Regarding U48C U66A U69C U72C U78C, the self-cleavage was 0.18.

Regarding U49A U66A U74C, the self-cleavage was 0.21.

As to U49C A57U U60C U66C U72A, the self-cleavage came out at 0.04.

On to A47G U60C A64U U66C, for which the self-cleavage is 0.11.

On to U51A G55U U60A U69A G73C A77G, for which the self-cleavage was 0.64.

A47G U60C U72G: the self-cleavage amounted to 0.37.

For U48G U54C A56G U58C, the self-cleavage turned out to be 0.35.

Regarding U48C U69G U72A, the self-cleavage came out at 0.16.

In the case of U49C A56U U72C, the self-cleavage stood at 0.48.

For the variant C50G A56G U74C, the self-cleavage came out at 1.1.

Consider U49A U67A U78C U80A, for which the self-cleavage is 0.23.

In the case of A47U C62U U66C C68U, the self-cleavage turned out to be 0.07.

U49A A56U A75U: the self-cleavage amounted to 1.14.

Turning to U49C U54G A64G, the self-cleavage is 0.43.

On to U49C U54A A57G, for which the self-cleavage worked out at 0.21.

As to U48C A65G U72G, the self-cleavage turned out to be 0.26.

For A47G U67C C71G, the self-cleavage was 0.45.

For the variant C50U C68A U74A, the self-cleavage was found to be 0.44.

Take U48A U54C U78C C79U: the self-cleavage came to 0.45.

For the variant U51A G55U U58C A64G, the self-cleavage worked out at 0.28.

In the case of U48A G70C U76A, the self-cleavage is 0.1.

For A47G A57U U66C C81A, the self-cleavage amounted to 0.2.

As to U48A U66C U80C, the self-cleavage came to 0.15.

U48C U49G A56G: the self-cleavage is 0.37.

Regarding U49A A57G U80C, the self-cleavage amounted to 0.33.

On to A47G U60A U67C U78C, for which the self-cleavage was 0.32.

As for A47G U58C A75G, the self-cleavage was 1.03.

On to U48C A56U U69C, for which the self-cleavage was 0.2.

Consider C50A C62U G70A A77G C79U U80C, for which the self-cleavage was 0.31.

For the variant U48C A56C U69C, the self-cleavage was 0.16.

Take U49C A57G U74A: the self-cleavage was 0.64.

For C50U U74C U76A, the self-cleavage worked out at 1.22.

As for A47G U66A U80A, the self-cleavage is 0.34.

On to U51A G55A A57C U58C U72A, for which the self-cleavage was 0.39.

With U49C U58A A64U, the self-cleavage is 0.1.

Regarding A47G U51C C62U U72C, the self-cleavage was determined as 0.12.

Turning to A47U U48A U72C, the self-cleavage was found to be 0.35.

Turning to U49C U66C U80C, the self-cleavage amounted to 0.54.

Regarding U51A A57G C79U, the self-cleavage was 0.8.

Turning to U49C U66C U67C, the self-cleavage came to 0.17.

For the variant U48C A77U U80C, the self-cleavage amounted to 0.78.

Turning to U48C A64G U74G, the self-cleavage is 0.5.

On to A47G U54C A77G, for which the self-cleavage was found to be 1.01.

On to U49C U66A U67C, for which the self-cleavage amounted to 0.13.

On to U51A U54C C62U A64U, for which the self-cleavage turned out to be 0.21.

Consider U49C A56G A64U U80C, for which the self-cleavage was 0.48.

Take U48C A56U C59A: the self-cleavage is 0.18.

Turning to A47G C68U U78C, the self-cleavage was 1.03.

For U51A A56G U80G, the self-cleavage is 0.84.

On to U48C A57G U67A, for which the self-cleavage was 0.35.

As for U51A U54C U80A, the self-cleavage came to 1.05.

Turning to U48C U72A U74C, the self-cleavage came to 0.5.

Take A47G U49C U67A: the self-cleavage came out at 0.1.

Take U51A A56G U69C: the self-cleavage was found to be 0.28.

A47U U54C A65G: the self-cleavage amounted to 0.08.

As for U49C U51C U60C, the self-cleavage is 0.17.

As for A47G U72A U78C, the self-cleavage was found to be 0.28.

Take A47G U51C A65G U69C U76C: the self-cleavage stood at 0.38.

For U48C A64G U69C U72C, the self-cleavage was 0.16.

For the variant U48C U69C U74C, the self-cleavage was 0.22.

With U48C A64G U69G, the self-cleavage turned out to be 0.22.

As to U48A U49C U72A, the self-cleavage is 0.17.

As for U49C U58C U67C, the self-cleavage was 0.18.

Turning to U49A U58C U66A, the self-cleavage worked out at 0.08.

For the variant U48C U51C A64C U72C A75U, the self-cleavage was found to be 0.27.

Take U49C A57G U58G A65U C71G: the self-cleavage came to 0.05.

As for U48C U67C G73U, the self-cleavage was 0.28.

Regarding A47U U49C A64G, the self-cleavage came out at 0.11.

Turning to U49C U60C U72C C81A, the self-cleavage was 0.2.

For A47U A57G U80C, the self-cleavage is 0.19.

Take U48C U60A U80C: the self-cleavage turned out to be 0.21.

As for A47G A56U U76C A77U, the self-cleavage is 0.36.

For A47G U51C A64G A65U U67C U76A, the self-cleavage was found to be 0.22.

On to A47U C62U U69C U72G, for which the self-cleavage amounted to 0.08.

As to U48C U72G U74A, the self-cleavage was found to be 0.53.

For A47G U67A U69C, the self-cleavage was 0.29.

Turning to U51A U60C U74A, the self-cleavage was 1.05.

For the variant C50A G61U C62A, the self-cleavage is 0.15.

As to U48C U51A U60C A64U U72C, the self-cleavage stood at 0.35.

Consider U48C A56G U58C A77G, for which the self-cleavage is 0.07.

For the variant U49C U60C U80G, the self-cleavage is 0.11.

In the case of U49C A57U U72C, the self-cleavage stood at 0.34.

A47G U49A U51A: the self-cleavage is 0.16.

As to C50U G52A U76C, the self-cleavage was 0.75.

Consider U51A A64G U69C, for which the self-cleavage was determined as 0.69.

Take A47G C79A U80C: the self-cleavage worked out at 1.25.

U49C A65G A77G: the self-cleavage is 0.45.

Consider U49G A64G A77U, for which the self-cleavage worked out at 0.42.

Regarding U51A C71A U76A, the self-cleavage was determined as 0.34.

For the variant A47G A57G A64G U78C, the self-cleavage was 0.37.

Take U48C U60C U67C U80A: the self-cleavage is 0.13.

As for U48C C68A U72A, the self-cleavage was 0.19.

For U49C A65G U67A, the self-cleavage is 0.17.

With U48C A77G U78A, the self-cleavage stood at 1.07.

A47G U49C U69A: the self-cleavage turned out to be 0.22.

With A47G A57G A64G U76C, the self-cleavage is 0.49.

Consider U49C U72A A77G, for which the self-cleavage was determined as 0.17.

With A47G U48C A75U, the self-cleavage worked out at 0.27.

In the case of U48C A57U U72G, the self-cleavage is 0.47.

As for U48A A56U U66C, the self-cleavage stood at 0.33.

With U49A A65U U74C, the self-cleavage turned out to be 0.21.

In the case of U48C A57G C79U, the self-cleavage came to 1.25.

U49C U60C U69C U72C U80A: the self-cleavage came to 0.05.

A47G A64U A75G: the self-cleavage came to 0.29.

In the case of U49A U51A U60C U66A A75G U80C, the self-cleavage stood at 0.09.

On to U49C A57G A64G, for which the self-cleavage is 0.14.

In the case of A47U U49A A75G, the self-cleavage amounted to 0.53.

Take U51A A56U A57G U69C: the self-cleavage came out at 0.1.

As to U48C G53A U72A, the self-cleavage stood at 0.4.

For the variant A47U C62U U69C, the self-cleavage came to 0.25.

On to U48G A57G A75U U80C, for which the self-cleavage was 0.65.

As to U49C G53A U72A, the self-cleavage stood at 0.22.

Consider C50U U76C U80C, for which the self-cleavage amounted to 1.13.

As to U51A U60C A64G U69C, the self-cleavage came to 0.52.

As to A47U A77G U78C, the self-cleavage came out at 0.26.

As for A47U U51A U69A, the self-cleavage is 0.13.

On to U49A A57U U67C, for which the self-cleavage was 0.15.

On to U48C U54A U78C, for which the self-cleavage came out at 0.59.

Turning to A47U U51C U60C U67C, the self-cleavage was found to be 0.1.

For A47G U48A U78A, the self-cleavage worked out at 0.41.

For U51A A57G U78C, the self-cleavage came out at 0.52.

As to A47U A56G G63A A64U U66C A77G U78A, the self-cleavage stood at 0.09.

In the case of U49A G55U U72C, the self-cleavage was 1.08.

For the variant A47U U49C U72G U78C, the self-cleavage stood at 0.12.

For the variant A47U G52A U69A, the self-cleavage is 0.15.

Turning to C50U U60C U72A, the self-cleavage came to 0.15.

In the case of U49C C59A G63A, the self-cleavage worked out at 0.13.

Turning to U48C U60A U72A, the self-cleavage is 0.21.

As to A47G C50A U58C A64C C81U, the self-cleavage turned out to be 0.16.

In the case of A47U U51C A57G U69C, the self-cleavage is 0.14.

Regarding U48C U54C U58C, the self-cleavage is 0.09.

In the case of U49A U60C U74A A75G, the self-cleavage was determined as 0.23.

With U49C U51C C59A, the self-cleavage stood at 0.08.

Regarding A47G U51A A56G U60A, the self-cleavage was determined as 0.26.

As to U51A G61A A65G, the self-cleavage was 0.33.

As to U48A U58C C62U U72C, the self-cleavage was 0.07.

U49A A57G U72A: the self-cleavage amounted to 0.4.

With U51A G55U A56U, the self-cleavage is 0.57.

Turning to U51A U60C C62A U69C, the self-cleavage worked out at 0.47.

For U49C G61C A65G U67C U78C, the self-cleavage is 0.04.

Consider U49G U58A U78C U80A, for which the self-cleavage was determined as 0.08.

As to U49C U58C A77U, the self-cleavage turned out to be 0.16.

For the variant A47G C68G G73A, the self-cleavage was determined as 0.92.

U48C A57G G63A: the self-cleavage is 0.96.

Turning to U51A G70A A77G, the self-cleavage turned out to be 0.74.

U49C U51A U66A U67C U69C: the self-cleavage worked out at 0.37.

In the case of U48C U51A U54A A56G A57C, the self-cleavage turned out to be 0.4.

For the variant U48C A64G A77U, the self-cleavage turned out to be 0.38.

For C50A U69A U74C U78A, the self-cleavage was 0.45.

As to U48C U49C U60C U66C, the self-cleavage was 0.15.

Regarding U48C A57G U69C, the self-cleavage was 0.76.

As to U49C A65G U80C, the self-cleavage turned out to be 0.19.

On to U49A A57G U60A G63U A75G, for which the self-cleavage was 0.18.

With U48A U51C U72C, the self-cleavage was 0.21.

On to U48C U54A A64G A65U, for which the self-cleavage was 0.29.

For U51A C62A U78A, the self-cleavage is 0.17.

Consider U48C U69C U76C, for which the self-cleavage came to 0.45.

As to U48C U58C U80A, the self-cleavage is 0.17.

For U49C U60C U67A, the self-cleavage turned out to be 0.4.

For U49C U58C A75G, the self-cleavage came to 0.11.

For A47G U60G U72C, the self-cleavage is 0.24.

U49A A65G U74C: the self-cleavage amounted to 0.48.

Regarding U48C U60C U69C, the self-cleavage is 0.17.

(Values after the RNAGym collection of RNA variant scans (doi:10.1093/nar/gkz1192).)
